Measured values from paper PMC10120020.
Results are given in words; binding and its absence hold for the method and conditions named. Binding seen in cells or lysates may run through a third protein. Some entries that bind do so weakly or less than the wild type. Blank lines part the entries; values can stand above or below the substance they belong to.

Protein sequences, listed by entry. Tags and fused reporters are not part of them. Lines headed by an entry give the natural chain unless they say otherwise; changes in a name come on top. Residues count along the entry.
UniProt Q86WV6: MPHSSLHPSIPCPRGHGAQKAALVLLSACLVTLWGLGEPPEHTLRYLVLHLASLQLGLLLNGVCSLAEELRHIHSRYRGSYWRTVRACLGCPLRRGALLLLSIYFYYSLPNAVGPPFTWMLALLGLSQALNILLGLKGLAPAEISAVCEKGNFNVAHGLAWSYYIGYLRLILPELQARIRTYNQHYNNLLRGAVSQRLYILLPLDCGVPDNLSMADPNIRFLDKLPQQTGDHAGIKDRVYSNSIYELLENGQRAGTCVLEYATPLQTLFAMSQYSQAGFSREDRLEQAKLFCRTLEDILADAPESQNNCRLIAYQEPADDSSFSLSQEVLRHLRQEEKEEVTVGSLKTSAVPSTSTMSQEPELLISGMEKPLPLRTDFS
mGST-fusion protein of STING residues 265 to 379: residues 265-379 of Q86WV6
UniProt P52630: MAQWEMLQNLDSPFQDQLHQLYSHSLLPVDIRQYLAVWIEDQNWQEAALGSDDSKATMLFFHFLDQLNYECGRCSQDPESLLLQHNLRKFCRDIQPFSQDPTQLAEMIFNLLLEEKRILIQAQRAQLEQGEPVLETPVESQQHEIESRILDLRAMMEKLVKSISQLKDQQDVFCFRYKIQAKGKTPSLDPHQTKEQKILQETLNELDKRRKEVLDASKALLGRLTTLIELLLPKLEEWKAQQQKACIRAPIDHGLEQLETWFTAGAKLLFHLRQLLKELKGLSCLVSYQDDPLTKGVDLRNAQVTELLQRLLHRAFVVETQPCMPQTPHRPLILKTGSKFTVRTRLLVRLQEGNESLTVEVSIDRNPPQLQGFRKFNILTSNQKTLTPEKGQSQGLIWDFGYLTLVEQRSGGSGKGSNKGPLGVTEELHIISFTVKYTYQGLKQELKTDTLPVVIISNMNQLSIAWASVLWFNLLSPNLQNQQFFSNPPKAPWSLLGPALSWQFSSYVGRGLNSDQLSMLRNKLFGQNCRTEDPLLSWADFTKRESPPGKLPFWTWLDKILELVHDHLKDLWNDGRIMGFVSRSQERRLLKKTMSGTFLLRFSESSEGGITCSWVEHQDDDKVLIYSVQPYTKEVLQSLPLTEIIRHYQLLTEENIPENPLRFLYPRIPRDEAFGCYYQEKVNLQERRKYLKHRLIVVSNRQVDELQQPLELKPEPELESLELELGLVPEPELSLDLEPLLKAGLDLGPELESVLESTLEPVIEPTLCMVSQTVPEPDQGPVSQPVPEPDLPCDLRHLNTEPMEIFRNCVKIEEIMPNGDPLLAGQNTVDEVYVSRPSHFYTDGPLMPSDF

Key:
[1] = target: STING (Bimolecular Fluorescence Complementation fusion) (UniProt Q86WV6); assay: split reporter; Bimolecular Fluorescence Complementation of STAT2 and STING in cells (SI Appendix, Fig. S3A)
[2] = target: T1, calnexin (Co-IP, SI Appendix Fig. S3D) (UniProt P27824); assay: co-IP; Co-IP with calnexin upon treatment with a STING ligand (SI Appendix, Fig. S3D); cells not told in the main text
T1 sequence: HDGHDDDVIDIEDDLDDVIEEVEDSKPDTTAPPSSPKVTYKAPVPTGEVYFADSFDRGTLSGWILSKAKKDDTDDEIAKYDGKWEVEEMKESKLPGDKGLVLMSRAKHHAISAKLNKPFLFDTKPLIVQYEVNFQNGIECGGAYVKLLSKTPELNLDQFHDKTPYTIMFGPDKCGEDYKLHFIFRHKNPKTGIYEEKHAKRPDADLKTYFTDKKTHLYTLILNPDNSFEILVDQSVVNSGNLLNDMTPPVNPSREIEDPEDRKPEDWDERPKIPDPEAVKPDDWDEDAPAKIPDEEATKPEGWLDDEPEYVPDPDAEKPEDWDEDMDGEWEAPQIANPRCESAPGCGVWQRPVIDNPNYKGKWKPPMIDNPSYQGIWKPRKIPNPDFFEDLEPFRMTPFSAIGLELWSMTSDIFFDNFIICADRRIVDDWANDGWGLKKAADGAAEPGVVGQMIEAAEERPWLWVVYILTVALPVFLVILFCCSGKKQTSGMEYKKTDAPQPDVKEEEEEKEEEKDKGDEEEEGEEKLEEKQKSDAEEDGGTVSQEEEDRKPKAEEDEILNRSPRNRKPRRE

[3] = target: STING (stimulator of interferon genes) (human (endogenous in HT1080)) (UniProt Q86WV6); assay: co-IP; endogenous proteins, HT1080 cells treated with 8 µg/mL cGAMP for 3 h
[4] = target: mGST-fusion protein of STING residues 265 to 379 (UniProt Q86WV6); assay: pull-down; set of mGST-fusion proteins with different STING truncations and deletions, tested with STAT2 (SI Appendix, Fig. S2A-C); called a direct interaction; conditions not told in the main text
[5] = target: STING (Calu-1 cells) (human (endogenous in Calu-1)) (UniProt Q86WV6); assay: co-IP; STAT2-deficient Calu-1 cells restored with WT, T404A, or T404E STAT2, stimulated with 2′3′cGAMP (8 μg/mL) for 3 h

Substance: STAT2 (Bimolecular Fluorescence Complementation fusion) (from UniProt P52630 1-851)
- binding [1]: binds

Substance: STAT2 (Co-IP with calnexin, SI Appendix Fig. S3D) (from UniProt P52630 1-851)
- binding [2]: binds

Substance: T404A STAT2 (restored in STAT2-deficient Calu-1 cells) (from UniProt P52630 1-851)
- binding [5]: no binding

Substance: T404E STAT2 (restored in STAT2-deficient Calu-1 cells) (from UniProt P52630 1-851)
- binding [5]: binds

Substance: WT STAT2 (restored in STAT2-deficient Calu-1 cells) (from UniProt P52630 1-851)
- binding [5]: binds

Now from value to substance:

- binding [3]: binds
Substance: STAT2 (from UniProt P52630 1-851)

- binding [4]: binds
Substance: STAT2 (partner of the mGST-STING fusion proteins) (from UniProt P52630 1-851)
